Data taken from the supplement of paper PMC11417369.
The other results are listed elsewhere or left out.

test system: PfHDP1 homeodomain (GST-tagged); test: gcPBM binding intensity (ln(normalized median fluorescence intensity)); higher = stronger DNA binding
Procedure, shortened: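 Probes on an Agilent 4 × 180k array were primer-extended, double-stranded and 36 bp long, taken from intergenic genomic regions, with negative controls added. GST-tagged P. falciparum DNA-binding domains from E. coli, about 25 μg on average, were applied to the array for 1 h in 1× PBS containing 1% milk, 0.2 mg/ml BSA, 0.5% salmon testes DNA and 0.03% Triton X-100. Binding intensity, obtained after Alexa488 anti-GST antibody detection and a 488 nm scan, is the highest Masliner-normalised natural-log median intensity across replicate spots of either probe orientation.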

Row | Sequence | gcPBM binding intensity (ln)
1 | TTATCATTACATGAGTGTACATTATTATATTTTTTT [XGTACX_site7845] | 6.65
2 | TAAAGATATAAATGCACACGTATTAAAAAAAAAATA [CACACA_site952] | 9.54
3 | GAAAGAAAGAAAGAAAGTACATATAAAAATATACAT [XGTACX_site7299] | 6.03
4 | ATATATTTTTTTTTTTGTACGTATATTTATATAATT [XGTACX_site8719] | 6.76
5 | TTTTAATGTATATTTTGTACGTATTATTAATATTCG [XGTACX_site8453] | 6.3
6 | TATCCTAATGCTACCACACACACAAAAACAAATAAT [CACACA_site2609] | 7.2
7 | ATGTTGAAAGGAAAAAATAATAAAATCGATATATTA [CACACA_negctrl_site549] | 6.33
8 | AAAAAAAAGAATAGAGCATGCAAAATATATGAAATA [TGCATGCA_site933] | 7.34
9 | CCTTACTTCTTATAAAGTACCCAATGATATACATTA [XGTACX_site1554] | 6.38
10 | AATATTTATGGGTGCACACAAACATACATATATATA [CACACA_site3395] | 10
11 | TGTATGATTATGTTGTGTACGTAAAATATGAAAAAT [XGTACX_site1720] | 7.39
12 | GTATCATAAAAGTATACACACATACATACATATGTA [CACACA_site5456] | 6.81
13 | GCACACATATAATTAAACATATATTTGTATTATTTT [GTGCAC_negctrl_site327] | 6.5
14 | ATTTTCCTTTAATTATGTACTTATGTAATAATAATG [XGTACX_site2612] | 6.96
15 | ATCTCTACAAAGTGCACACACGTAAAAACATATATA [CACACA_site6046] | 9.38
16 | ATATATTTATGTATCACACACAAAAAAAAAAAATAA [CACACA_site255] | 6.42
17 | AATTTTTTTCTCCAAGTGCATTAGAACATTAACGTA [GTGCAC_site9413] | 8.91
18 | ACAAATAAATAAAAAACACACACAAATAAATAAATA [CACACA_site8708] | 6.89
19 | AGTATATAAAATACTGTATCGATGGGGGAGGGCGCA [CACACA_negctrl_site1612] | 7.38
20 | AATATAATGCAATATACACACATATATTTCTCTTTT [CACACA_site7276] | 7.81
21 | TAATAATAAAATATTTGTACATATAAAATATGGCTG [XGTACX_site7904] | 6.13
22 | ATTATTATTTATATGATACACACGTACATATACGCA [CACACA_site3823] | 6.36

Row | Sequence | gcPBM binding intensity (ln)
23 | TATAAAAAATAATTATCATGAAATATATGATCATCA [TGCATGCA_negctrl_site137] | 6.48
24 | TCAAAAATGAGTTACACACACACATATATATATATA [CACACA_site2229] | 9.36
25 | ATATGAATAAATAAAAGTACATACATAATGTATTAT [XGTACX_site5969] | 6.37
26 | TTAAAAAAAATATAATGTACTTGTAGAATTATATTT [XGTACX_site6220] | 5.76
27 | TATATTTTTTATAAATGTACATGGATAGGCATAAAC [XGTACX_site8401] | 7.14
28 | TATATATAATATATATGTACATAATATATTTTATAT [XGTACX_site2909] | 6.53
29 | TAAAACACTCATGGCACACATAAAACATTTTTATGA [CACACA_site3574] | 6.51
30 | AACAAATATATTAACACACAAACATATAAACCAATG [CACACA_site3970] | 6.89
31 | AATTATTGTGAAGGGAAAACAAAAAAGTTTATAATT [CACACA_negctrl_site1337] | 6.51
32 | AAGCGAATATATATCACACACAAAAAAATCAGACTA [CACACA_site2108] | 6.67
33 | AACTAATAAAAAAAAAGTACACAATATGTAAATAAC [XGTACX_site5263] | 6.89
34 | AAATTAATTAAATATACACACATATATAGATATATA [CACACA_site6321] | 6.46
35 | ACCACATTTTTTTTTGCATGTTGTTTAAAAAAAGGC [TGCATGCA_site137] | 6.74
36 | TATATATTATATATATGTACATACTTTTTACGTTCA [XGTACX_site2493] | 6.75
37 | AGTTTAAATTAAATTACACACTACGAATAATATATT [CACACA_site7811] | 6.46
38 | AGTATAAGCATTATTGTGCACATAATTATAATTTTT | 11
39 | TATTAATCTTTTTTTAAACAAAAAATTAAGCAAATT [CACACA_negctrl_site884] | 6.2
40 | TATATATTAATAAATAGTACCCGTGGAATTTATATT [XGTACX_site5855] | 6.32
41 | ATTGTTCTCCAAAAGTGTACGTATTATTTTTCTGGA [XGTACX_site1404] | 6.56
42 | GTTGCAATTAACACTAGTACATATAAGTAGTTTATT [XGTACX_site2063] | 6.61
43 | AATAATGAAACAGGAAAAAAATATTGTTAAAATGTA [XGTACX_negctrl_site400] | 6.58
44 | TCCTTACATTTTAAAACACACAAAAATTAATTGTTA [CACACA_site2313] | 6.56
